Article PMC4336329 (PLoS ONE, 2015)
Among all 310,000 compounds or so, about 14,000 (4.5%) showed an effect of 50% or more. The effect is printed as a negative number. The list shows a part of the results.

What follows are compounds tested against human ether-à-go-go-related gene (hERG) potassium channel (human, UniProt Q12809) (assay: primary screen, population patch clamp on CHO cells stably expressing hERG).
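Note: peak tail current of the secondary pulse compared with the same well before compound.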

human ether-à-go-go-related gene (hERG) potassium channel, sequence (Q12809 whole entry, looked up): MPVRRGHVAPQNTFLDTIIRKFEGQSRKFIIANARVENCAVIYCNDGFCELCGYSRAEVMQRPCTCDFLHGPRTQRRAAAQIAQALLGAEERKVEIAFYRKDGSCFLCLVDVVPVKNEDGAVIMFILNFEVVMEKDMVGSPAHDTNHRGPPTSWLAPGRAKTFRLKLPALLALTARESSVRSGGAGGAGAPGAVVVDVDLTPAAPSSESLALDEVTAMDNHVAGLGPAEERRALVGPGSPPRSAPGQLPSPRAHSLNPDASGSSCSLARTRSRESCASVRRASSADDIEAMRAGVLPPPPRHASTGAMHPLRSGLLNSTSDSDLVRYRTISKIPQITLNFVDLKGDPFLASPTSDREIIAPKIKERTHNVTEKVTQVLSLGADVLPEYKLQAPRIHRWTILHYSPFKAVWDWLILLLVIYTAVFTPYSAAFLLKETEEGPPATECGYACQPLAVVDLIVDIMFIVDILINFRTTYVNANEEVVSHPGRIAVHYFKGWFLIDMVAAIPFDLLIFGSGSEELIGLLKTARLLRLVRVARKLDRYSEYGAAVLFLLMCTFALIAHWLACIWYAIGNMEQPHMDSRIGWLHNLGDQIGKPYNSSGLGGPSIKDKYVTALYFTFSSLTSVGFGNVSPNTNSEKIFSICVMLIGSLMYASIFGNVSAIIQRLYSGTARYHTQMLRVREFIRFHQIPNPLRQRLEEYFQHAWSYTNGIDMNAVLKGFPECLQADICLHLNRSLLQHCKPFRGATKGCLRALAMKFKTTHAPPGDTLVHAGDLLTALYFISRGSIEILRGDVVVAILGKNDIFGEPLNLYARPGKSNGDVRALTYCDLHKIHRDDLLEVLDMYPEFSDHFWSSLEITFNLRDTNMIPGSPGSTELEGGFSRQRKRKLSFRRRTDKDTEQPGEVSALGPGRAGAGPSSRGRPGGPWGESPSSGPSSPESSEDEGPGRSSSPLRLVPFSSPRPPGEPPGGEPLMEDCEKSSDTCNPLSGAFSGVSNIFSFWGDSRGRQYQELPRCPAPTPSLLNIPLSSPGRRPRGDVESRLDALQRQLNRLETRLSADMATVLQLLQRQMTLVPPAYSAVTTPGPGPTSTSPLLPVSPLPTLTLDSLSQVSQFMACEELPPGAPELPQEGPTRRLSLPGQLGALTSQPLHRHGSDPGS

Point of comparison: `CCCN(CC(=O)Nc1ccc(F)c(F)c1F)C(=O)Cn1c(=O)cnc2ccccc21`, “hERG current change (%, negative = inhibition) at 10uM” value -25.2%. Against it:
- C#CCOCCOCCOCCNc1nc(N2CCN(C(=O)C([C@@H](C)CC)n3cc(C(N)CO)nn3)CC2)nc(N2CCN(C(=O)[C@H](CCC(=O)O)n3cc(C(N)CC(C)C)nn3)CC2)n1.Cl (stereo partly shown) — higher, 3.33%
- Cc1ccc(CSc2nnc(CCNC(=O)OC(C)(C)C)o2)cc1 — higher, 6.81%
- O=C(O)CC(NC(=O)Nc1ccccc1)c1ccc(OC2CCCC2)cc1 (stereo not shown) — higher, 26.6%
- Cc1ccc(S(=O)(=O)N2CCCC2c2nc3ccccc3s2)cc1 (stereo not shown) — higher, 3.62%
- COc1ccccc1-c1nc(-c2ccccc2)nc(N2CCN(C)CC2)c1C#N — higher, -16.3%
- Cc1ccc(C(C(=O)NCC2CCCO2)N(C(=O)c2snc(C(N)=O)c2N)c2ccc(C(C)C)cc2)o1 (stereo not shown) — higher, 1.13%
- CCc1ccc(Nc2nc(C)cc(C)c2C(N)=O)cc1 — higher, 4.67%
- Cc1ccccc1Cn1cnc2c(nnn2Cc2ccc(F)cc2)c1=O — higher, -1.9%
- O=C([O-])c1ccccc1-c1c2cc(I)c(=O)c(I)c-2oc2c(I)c([O-])c(I)cc12.[Na+] — higher, 4.08%
- Clc1ccc(C2=Nn3c(nnc3-c3cccs3)SC2)cc1 — higher, -4.8%
- CCCCC1=CC2=C(c3ccco3)C(=O)C(C)(OC(=O)c3ccc(OC)cc3)C(=O)C2=CN1C1CCCCC1 (stereo not shown) — higher, -1.39%
- O=C(Nc1ccc(NC(=O)c2cccs2)cc1)c1ccc(Br)o1 — higher, 5.47%
- CC1CCN(CCCNC(=O)C2CCCN(c3ncnc4c3nc3n4CCCCC3)C2)CC1 (stereo not shown) — higher, -3.75%
- COc1ccc(OC)c2[nH]c(=O)c(CCNC(=O)Cc3cccs3)cc12 — higher, 5.17%
- CNC(=S)N(CCCn1ccnc1)Cc1c(F)cccc1Cl — higher, -9.51%
- COCCCNC(=O)CCc1nc(-c2ccccc2Cl)no1 — higher, 13.1%
- CCC(C(=O)OCC(=O)N1CCN(c2ccc(OC)cc2)CC1)c1ccccc1 (stereo not shown) — lower, -33.8%
- Cc1ccccc1NC(=O)NCC1CCN(C(=O)OC(C)(C)C)CC1 — higher, -19.6%
- O=C(C(Cc1ccccc1)N1C(=O)C2C3C=CC(C3)C2C1=O)N1CCCCC1 (stereo not shown) — higher, 8.64%
- CCCc1cc(=O)n2[nH]c(-c3ccc(OC)cc3)nc2n1 — higher, -7.4%
- Cc1ccccc1C(=O)N1CCN(c2ccc(NC(=O)c3cccc(OC(C)C)c3)cc2)CC1 — higher, -2.26%
- COC1CC(C)NC(=S)N1 (stereo not shown) — higher, 10.5%
- COc1cc(C2C(C(C)=O)=C(O)C(=O)N2CCc2c[nH]c3ccccc23)ccc1O (stereo not shown) — higher, -0.455%
- O=[N+]([O-])c1ccccc1-c1cc(-c2ccccc2O)n[nH]1 — higher, 9.44%
- COc1ccccc1NCCC(=O)OCC(=O)NC1CCCCC1 — higher, 6.11%
- CCOC(=O)N1CCC(NC(=O)CS(=O)(=O)Cc2nc(-c3ccc(OC)cc3)oc2C)CC1 — higher, 13.3%
- N#Cc1ccc(NC(=O)COC(=O)C2Cc3ccccc3CN2C(=O)c2ccccc2)cc1 (stereo not shown) — higher, -0.536%
- COc1ccccc1-c1nnc(SCC(=O)Nc2ccc(S(N)(=O)=O)cc2)n1C — higher, -2.91%
- Cc1ccc(NC(=O)CSCC(=O)Nc2cc(C(F)(F)F)ccc2N2CCOCC2)cc1 — lower, -26.4%
- CC(C)CCNC(=O)[C@H](Cc1ccccc1)N1Cc2ccccc2C1=O — higher, -11.6%
- CCOc1ccc(N(CC(=O)NCC2CCCO2)S(=O)(=O)c2ccc(Cl)cc2)cc1 (stereo not shown) — higher, -13.1%
- CC(=O)Nc1ccc(O)cc1 — higher, 16.4%
- O=C(O)CCSc1nnc(-c2ccc3c(c2)OCO3)o1 — higher, -2.42%
- Cc1cc(C)nc(N/N=C/c2cccc3ccccc23)n1 — higher, 5.46%
- CCCCC(=O)Nc1nnc(S(=O)(=O)N2CCCCCC2)s1 — higher, 15.7%
- O=C(c1ccco1)n1nc(NCc2ccccc2)nc1NCc1ccccc1 — higher, 1.76%
- O=C(CSc1nnc(CCCO)n1-c1ccccc1)NCCc1ccccc1 — higher, -10.2%
- Cc1ccccc1Cn1cc(NC(=O)COc2ccccc2)cn1 — higher, -4.38%
- CCOc1ccc(S(=O)(=O)N2CCN(Cc3ccco3)CC2)cc1 — higher, 4.27%
- Cc1cc(Cc2ccc(N)c(C)c2)ccc1N — higher, 12%
- Cc1cc(=O)nc2c3ccccc3n(C(C)C(=O)Nc3cc(F)ccc3F)n12 (stereo not shown) — higher, -6.9%
- O=c1oc2ccccc2c(NCCc2ccccc2)c1[N+](=O)[O-] — higher, -3.6%
- O=C(c1cc2ccccc2o1)N1CCN=C1SCc1cccnc1 — higher, 2.36%
- Cc1cc(C(=O)NC(C)c2ccncc2)cs1 (stereo not shown) — higher, -6.54%
- COc1ccc(NC(=S)N2CCN(Cc3ccc(C)cc3)CC2)cc1 — lower, -31.8%
- Cc1cc(=O)[nH]c(SCC(=O)Nc2cc(S(=O)(=O)N(C)C)ccc2Cl)n1 — higher, 28.7%
- CC(=O)NC(Cc1c[nH]c2ccccc12)C(=O)NCc1ccc2c(c1)OCO2 (stereo not shown) — higher, -11.1%
- Cc1ccc(C2CC(=O)c3cnc(N4CCN(c5ccccc5)CC4)nc3C2)cc1 (stereo not shown) — higher, 2.6%
- COc1cccc(CN2CCN(Cc3cc(OC)c(OC)c(OC)c3)CC2)c1OC.O=C(O)C(=O)O — higher, -8.03%
- Oc1ccc(C(=S)N2CCCCC2)cc1Cl — higher, -13.7%
- O=C(O)C(=O)/C(=C\c1cccc2ccccc12)c1ccc2ccccc2n1 — higher, 17.6%
- CN(C)C(=O)c1ccc(NC(=O)c2ccccc2SCC(=O)N2CCCC2)cc1 — higher, 2.81%
- O=C1CC(Cc2ccc(Cl)cc2)C(=O)N1c1ccncc1 (stereo not shown) — higher, -10.1%
- CC(=O)c1ccc(S(=O)(=O)N2CCN(C(=O)CSc3ccc(F)cc3)CC2)cc1 — higher, 11.7%
